# Results from the supplement of paper PMC12217912.
# Some of the results follow. Sequences were assembled here from the parent chain. Inactive controls read about 0.05.
# B1: TEV protease; numbered along this chain (parent)
# chain: MGESLFKGPRDYNPISSSICHLTNESDGHTTSLYGIGFGPFIITNKHLFRRNNGTLVVQSLHGVFKVKDTTTLQQHLVDGRDMIIIRMPKDFPPFPQKLKFREPQREERICLVTTNFQTKSMSSMVSDTSCTFPSGDGIFWKHWIQTKDGQCGSPLVSTRDGFIVGIHSASNFTNTNNYFTSVPKNFMELLTNQEAQQWVSGWRLNADSVLWGGHKVFMVKPEEPFQPVKEATQL
# Variants of: B1
# Test: raw area under fraction-flipped curve 0-4 h after induction (AUC4h, not background-subtracted), DNA-recorder readout of cleavage of the substrate (dimensionless); higher = more cleavage of the substrate by the protease variant
# Conditions: temperature: 34 °C; time window: 0-4 h after rhamnose induction
# 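Further: Bxb1 expression induced with 0.2% (w/v) L-rhamnose at OD600 near 0.5, cultures sampled hourly, flipped fraction per protease–substrate barcode pair counted by paired-end Illumina sequencing.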
Variant,area with substrate ENDYFQS,area with substrate ENFYFQS,area with substrate ENGYFQS,area with substrate ENHYFQS,area with substrate ENIYFQS,area with substrate ENNYFQS,area with substrate ENQYFQS,area with substrate ENSYFQS,area with substrate ENTYFQS,area with substrate ENVYFQS
P93G,0.0676,0.0685,0.0628,0.0472,0.102,0.0373,0.0515,0.0613,0.0503,0.0742
H143E,0.0549,,,0.055,0.055,,0.0591,0.0547,0.0494,0.0593
L190I,0.0614,,0.047,0.0482,,0.0555,0.104,0.0607,,0.082
Q75Y,0.0583,0.0625,0.0612,,,0.066,0.0557,0.0494,0.0644,
W203Q,0.0613,,,,,0.0835,0.0548,0.046,0.0514,
S158Q,0.0532,,,0.0363,,,0.0575,,0.0563,0.0515
V210I,0.0643,,,,,,,0.0591,0.0727,0.0718
V210A,0.0624,,0.0709,,,,0.0592,0.0326,0.0457,
Q74T,0.0639,0.0469,,,0.0876,,0.0654,0.0458,,
I15R,0.0646,,,0.064,0.0766,0.0517,,0.0518,,0.031
G63E,0.0514,0.0617,,0.0633,0.104,0.0678,0.0426,,0.072,0.0592
T23F,0.0558,0.0572,0.0648,0.0448,0.0926,0.0526,0.0621,0.0554,0.0521,
G2W,0.0487,,,0.047,,,0.0586,0.0543,,
M188K,0.0648,0.0747,,0.0473,,0.0552,0.0832,0.0523,0.0542,
M188Q,0.0621,0.073,,0.0646,0.122,0.064,0.0585,,,0.0698
N206Q,0.0587,0.0579,,0.0442,0.104,0.048,,0.0219,0.0575,
V157K,,,,,,0.0575,0.0527,0.0485,,0.057
P9E,0.0655,0.0658,0.0643,0.0383,,,,,0.0537,0.0679
F163G,0.0615,,,,,,0.0703,,,

Variant,area with substrate ENDYFQS,area with substrate ENFYFQS,area with substrate ENGYFQS,area with substrate ENHYFQS,area with substrate ENIYFQS,area with substrate ENNYFQS,area with substrate ENQYFQS,area with substrate ENSYFQS,area with substrate ENTYFQS,area with substrate ENVYFQS
P225Y,0.0596,0.0527,,,,0.0571,0.0568,0.0032,,0.0725
L33T,0.0589,0.0351,0.0569,0.0584,0.143,,0.0688,,,
S201M,0.0601,,0.065,0.0681,,0.0651,0.0648,0.0675,,0.0777
L191W,0.0634,,0.0707,,,,0.0664,0.0784,,0.0603
S135T,0.0614,0.0616,0.0543,0.044,,,0.07,0.0582,0.0671,0.0698
R51T,0.02,0.0647,,,,,0.054,,,0.0904
R102F,0.051,,0.0468,,,0.0195,,0.0405,0.0031,
Q234E,0.0329,,0.0588,0.0573,0.113,0.0712,0.0408,0.0644,0.0362,0.0573
V67E,0.0512,,,,,,,0.0518,,
W141K,0.0551,0.0439,0.0559,0.0603,0.0612,0.0407,0.0436,0.0651,,0.0516
N178L,0.0497,,,,,,,0.0646,,0.0872
P94C,0.0755,,,0.0554,,,0.0685,0.0583,,0.0678
L235V,0.0543,0.0593,0.108,,,,0.0489,,0.0666,0.0689
T159H,0.0677,0.0741,,,0.122,,0.0546,0.0883,,
T159W,0.0619,,,,,,,0.0436,,
W212Y,,0.0642,,,,,,0.065,,
A170D,,,,0.0501,,0.0505,0.0551,0.0669,0.0707,
A170L,0.0429,0.0553,0.0722,,,0.049,,0.0596,,
A170N,,0.0422,,,,0.0655,,0.0486,0.0578,0.0925

# Same assay, conditions: temperature: 34 °C; time window: 0-4 h after rhamnose induction
Variant,area with substrate ENYYFQS,area with substrate ENCYFQS,area with substrate ENEYFQS,area with substrate ENMYFQS,area with substrate ENPYFQS,area with substrate ENRYFQS,area with substrate ENWYFQS,area with substrate ENKYFQS
P93G,0.0535,,,,,,,
H143E,,0.0552,0.0557,0.0361,0.0676,,,
L190I,,,,,0.0501,0.0574,,
Q75Y,,,0.0741,,,0.0579,0.0573,
W203Q,0.0594,,,0.0469,0.0443,0.0292,,
S158Q,,0.0757,0.0391,0.0424,,,,
V210I,,0.0626,,0.0689,,,,
V210A,,0.0691,0.0608,,,,0.0434,0.0747
Q74T,0.0589,,0.0637,,,0.06,0.0617,
I15R,,,0.0565,,,,,
G63E,,,0.0778,0.0732,,,0.0224,
T23F,,,0.0531,,0.0482,0.0694,0.0069,
G2W,,,0.0594,,,,,
M188K,,,0.0619,,0.0459,,,0.0691
M188Q,0.0522,0.0555,0.0625,0.0825,,,,0.055
N206Q,0.0635,,,,0.0602,0.0513,,
V157K,,0.059,,,,,0.0543,
P9E,,,0.0596,0.0898,0.0595,0.0581,,0.0401
F163G,,0.0708,,,,,,

Variant,area with substrate ENYYFQS,area with substrate ENCYFQS,area with substrate ENEYFQS,area with substrate ENMYFQS,area with substrate ENPYFQS,area with substrate ENRYFQS,area with substrate ENWYFQS,area with substrate ENKYFQS
P225Y,0.0515,0.0799,0.0639,,,0.0811,,0.0797
L33T,,,0.0692,,0.0691,0.0573,0.0557,
S201M,0.0678,0.0655,0.0544,,0.0594,0.0375,0.0565,
L191W,0.0558,0.0623,,0.0549,,0.0527,,
S135T,0.0674,,0.0664,,0.0672,0.059,0.0682,
R51T,0.0424,,,,,,,
R102F,,,0.0462,,,,,0.0464
Q234E,,0.0682,0.0497,,0.05,,,
V67E,,,0.0488,,0.064,,,0.0905
W141K,0.0568,,0.0646,0.0619,,0.0663,,
N178L,,0.0684,0.0646,0.0775,0.0379,0.0583,,0.0916
P94C,,,,0.0826,,0.0548,,0.0761
L235V,,0.0754,0.062,,,,,0.0616
T159H,,,0.0618,,,0.069,0.0451,
T159W,,,,0.0572,,0.0497,,
W212Y,,0.076,,,0.0605,,,
A170D,,0.0548,,,,,,
A170L,,,,,,0.0701,,
A170N,0.0704,0.058,0.0721,,,,,0.0629
